Several values for one entry are separate records, joined by “and”; a condition that tells them apart may be missing. Equal values may be shown once. The campaign covered roughly 230,000 compounds. About 3,600 (1.6%) were called active. The inconclusive results got no clear call from the source; some entries with a clear call stand among them for comparison. Calls follow the shape of the dose curve; as a rule, active = well fitted inhibition curve with a large enough effect (not every such curve was filed as active); inconclusive = small, poorly fitted or top-dose-only effect, or another doubt; inactive = no such curve, though single readings can be large or run the other way. Where the call is inconclusive, the potency comes from a doubtful curve fit. The source holds several records for some structures; these can differ, active in one and inactive in another.
Each compound was assayed against Lysine-specific demethylase 4E (Homo sapiens) (UniProt B2RXH2) (assay: qHTS Assay for Inhibitors of Human Jumonji Domain Containing 2E (JMJD2E)). Conditions: JMJD2E catalytic domain, FDH-coupled NADH fluorescence (FDH is formaldehyde dehydrogenase); series mostly up to 57.1 µM.
Chain of UniProt B2RXH2 (B2RXH2 whole entry, looked up, the tested form may be a part): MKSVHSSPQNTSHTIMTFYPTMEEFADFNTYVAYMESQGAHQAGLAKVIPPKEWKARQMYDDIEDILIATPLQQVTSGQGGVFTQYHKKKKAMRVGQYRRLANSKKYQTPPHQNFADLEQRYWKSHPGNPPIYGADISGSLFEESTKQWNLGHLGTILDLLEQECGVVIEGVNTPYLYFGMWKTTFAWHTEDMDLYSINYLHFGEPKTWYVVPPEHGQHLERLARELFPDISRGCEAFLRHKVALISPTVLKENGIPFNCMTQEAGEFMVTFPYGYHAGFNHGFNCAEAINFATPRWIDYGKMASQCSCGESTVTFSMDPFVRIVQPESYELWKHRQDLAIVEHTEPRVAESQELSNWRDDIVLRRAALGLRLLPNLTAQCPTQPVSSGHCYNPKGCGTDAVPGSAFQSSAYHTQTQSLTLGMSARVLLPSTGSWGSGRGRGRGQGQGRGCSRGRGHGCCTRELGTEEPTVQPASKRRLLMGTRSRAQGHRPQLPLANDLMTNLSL
Also: nearly all actives have a fitted effect of over 50% in size.
Potency is read from the fitted curve at half-maximal effect; tags tell the direction and shape of the fitted curve.

Question: For `Cc1cc(NC(=O)CSCc2nc(-c3cccc(F)c3)oc2C)no1`, which Potency is on record?
Answer: inconclusive: 35.5 µM [inhibitor, single point]

Question: `CC(/C=C/c1ccco1)=N\NC(=O)CNc1cccc(C)c1` was tested. Which Potency did it give?
Answer: inactive

Question: Which Potency does the source give for `COc1cccc(/C=N/NC(=O)c2[nH]c(C)c(C(=O)N/N=C/c3cccc(OC)c3O)c2C)c1O` here?
Answer: active: 25.1 µM

Question: `Cc1c(-c2ccnc3cc(C(=O)O)nn23)cnn1C` was tested. Which Potency did it give?
Answer: inconclusive: 28.2 µM [inhibitor, partial curve]

Question: For `Cc1ccnc(NC(c2ccccc2O)c2oc(CO)cc(=O)c2O)c1` (stereo not given), which Potency is on record?
Answer: inconclusive: 31.6 µM [inhibitor, single point]

Question: `COc1ccc(/C=C2\SC(=O)N(CC(=O)NCCC(C)C)C2=O)cc1OC` was tested. Which Potency did it give?
Answer: inconclusive: 39.8 µM [inhibitor, single point]

Question: How did the Potency turn out when `CCOC(=O)c1c(C)oc2c1c1c(c3ccccc32)OCN(CCCC(=O)O)C1` was run?
Answer: active: 10 µM

Question: For `Cc1[nH][nH]c(=O)c1C(c1ccc([N+](=O)[O-])cc1)c1c(C)[nH][nH]c1=O`, which Potency is on record?
Answer: inconclusive: 28.2 µM [inhibitor, single point]

Question: Which Potency does the source give for `Cc1ccccc1C(=O)Nc1cccc(NC(=S)NC(=O)c2cccs2)c1` here?
Answer: inactive

Question: How did the Potency turn out when `O=S(=O)(Nc1nc2ccccc2nc1NCc1ccco1)c1ccc(Cl)cc1` was run?
Answer: inconclusive: 20 µM [inhibitor, partial curve]

Question: For `N#Cc1ccccc1-c1cncnc1NCc1cccnc1`, which Potency is on record?
Answer: inactive

Question: How did the Potency turn out when `COc1ccc(C2C(C#N)=C(C)NC(C)=C2C(=O)OC(C)C)c(OC)c1` (stereo not given) was run?
Answer: inconclusive: 28.2 µM [inhibitor, partial curve]

Question: How did the Potency turn out when `COCCCNC(=S)Nc1ccc(C)cc1[N+](=O)[O-]` was run?
Answer: inactive

Question: How did the Potency turn out when `O=C(CN1CCN(c2ncccn2)CC1)Nc1ccccc1-n1cccc1` was run?
Answer: inconclusive: 39.8 µM [inhibitor, single point]

Question: How did the Potency turn out when `COc1ccc(-c2cc(OC)c3ccccc3n2)cc1` was run?
Answer: inconclusive: 28.2 µM [inhibitor, partial curve]

Question: How did the Potency turn out when `Cc1ccc(NC(=O)C2CCCN2S(=O)(=O)c2ccc3c(c2)n(C)c(=O)c(=O)n3C)c(C)c1` (stereo not given) was run?
Answer: inconclusive: 31.6 µM [inhibitor, single point]

Question: Which Potency does the source give for `CC(C)Sc1nc(SCC(=O)O)c2c3c(sc2n1)COC(C)(C)C3` here?
Answer: inconclusive: 22.4 µM [inhibitor, partial curve]

Question: With `CCCCSc1nc(NCc2ccco2)c2c3c(sc2n1)COC(C)(C)C3` as the compound, how does the Potency read?
Answer: inconclusive: 39.8 µM [inhibitor, single point]

Question: `CCCCc1cc2c(c(NC(=O)CC)n1)c(=O)oc1ccccc12` was tested. Which Potency did it give?
Answer: inconclusive: 28.2 µM [inhibitor, partial curve]

Question: For `Cn1[nH]c(C(F)(F)F)c(C=Nc2ccc(Cl)cc2)c1=O`, which Potency is on record?
Answer: inactive

Question: Which Potency does the source give for `O=C(CCC(=O)OCc1ccc(C(=O)Oc2ccc(Cl)cc2)cc1)Nc1ccccc1` here?
Answer: inconclusive: 39.8 µM [inhibitor, single point]

Question: How did the Potency turn out when `CC(C)(C)n1cnc(C(N)=O)c1N` was run?
Answer: inactive

Question: Which Potency does the source give for `O=C1C(Nc2ccccc2)=CC(c2ccc(O)cc2)N1c1ccccc1` (stereo not given) here?
Answer: inconclusive: 28.2 µM [inhibitor, single point]

Question: Which Potency does the source give for `COC(=O)C1=CO[C@@H](C)[C@H]2CN3CCc4c([nH]c5ccccc45)[C@@H]3C[C@H]12` here?
Answer: inactive and active: 12.6 µM

Question: Which Potency does the source give for `Cc1ccc(/C=C/C(=O)OCC(=O)N2CC(=O)Nc3ccccc32)o1` here?
Answer: inactive

Question: For `Cc1cccc(C(=O)N2c3ccccc3C(=O)OC2c2ccc3c(c2)OCO3)c1` (stereo not given), which Potency is on record?
Answer: inconclusive: 31.6 µM [inhibitor, single point]

Question: With `O=C(N/N=C/c1c[nH]c2ccc(Br)cc12)c1ccn(Cc2ccc(Cl)cc2)n1` as the compound, how does the Potency read?
Answer: inactive

Question: With `COCCn1c(SCC(=O)Nc2ccc(NC(=O)c3ccco3)c(OC)c2)nc2ccccc2c1=O` as the compound, how does the Potency read?
Answer: inconclusive: 31.6 µM [inhibitor, partial curve]

Question: Which Potency does the source give for `N=c1c2c(-c3ccccc3)c(-c3ccccc3)n(Cc3ccco3)c2ncn1Cc1ccccc1` here?
Answer: inactive

Question: With `COc1ccc(/C=C\c2cc(OC)c(OC)cc2CC[N+](C)(C)C)cc1OC` as the compound, how does the Potency read?
Answer: inconclusive: 28.2 µM [inhibitor, partial curve]

Question: For `Cc1cc(C)n(C(=O)CCC(=O)NCc2ccccc2)n1`, which Potency is on record?
Answer: inactive

Question: `C/C(=N\OCC(=O)Nn1c(=O)[nH]c2ccccc2c1=O)c1cccs1` was tested. Which Potency did it give?
Answer: inconclusive: 22.4 µM [inhibitor, single point]

Question: `COc1cc(C2C3CN(C)CC=C3C(C#N)=C(N)C2(C#N)C#N)ccc1OC(C)C` (stereo not given) was tested. Which Potency did it give?
Answer: inconclusive: 25.1 µM [inhibitor, partial curve]

Question: With `COc1ccc(Cl)cc1Nc1nc(-c2sc(NC(=O)c3ccccc3)nc2C)cs1` as the compound, how does the Potency read?
Answer: inconclusive: 35.5 µM [inhibitor, single point]

Question: How did the Potency turn out when `Cc1cc2c(NC(=O)Nc3ccc(C(C)(C)C)cc3)cccc2nn1` was run?
Answer: inconclusive: 8.91 µM [inhibitor, partial curve]

Question: For `CC(C)CC1C(C#N)=C(N)SC(N)=C1C#N`, which Potency is on record?
Answer: inconclusive: 25.1 µM [inhibitor, partial curve]

Question: Which Potency does the source give for `CC(C)CN1C(=O)c2ccc(C(=O)Nc3ccncc3)cc2C1=O` here?
Answer: inactive

Question: `COc1ccc(C2C(C#N)=C(N)Oc3c2sc2nc(C)cc(C)c32)cc1` (stereo not given) was tested. Which Potency did it give?
Answer: inconclusive: 11.2 µM [inhibitor, partial curve]

Question: For `Fc1ccccc1CSc1nc2ncc(Br)cc2[nH]1`, which Potency is on record?
Answer: inactive

Question: How did the Potency turn out when `CN(C)c1nc(N(C)C)nc(N2CC(CCl)OC2=N)n1` (stereo not given) was run?
Answer: inconclusive: 25.1 µM [inhibitor, partial curve]

Question: `Cc1ccc(Nc2nnc(-c3ccc4c(c3)OCO4)o2)c(C)c1` was tested. Which Potency did it give?
Answer: inconclusive: 31.6 µM [inhibitor, single point]

Question: With `Cc1ccc(N(C(=O)Cn2nnc3ccccc32)C(C(=O)NCc2ccco2)c2cccnc2)cc1` (stereo not given) as the compound, how does the Potency read?
Answer: inactive

Question: `COc1ccccc1N1CCN(/N=C/c2cccc(OC)c2OC)CC1` was tested. Which Potency did it give?
Answer: inactive

Question: `O=C(Nc1ccc(N2CCCCC2)c(Cl)c1)c1ncn[nH]1` was tested. Which Potency did it give?
Answer: inactive

Question: Which Potency does the source give for `CC12CCC(C(=O)N(CSC(=S)N/N=C\c3ccccc3O)C1=O)C2(C)C` (stereo not given) here?
Answer: inactive

Question: How did the Potency turn out when `COc1ccccc1C(=O)N1CCN(c2nc3cc(C)c(C)cc3cc2C#N)CC1` was run?
Answer: inconclusive: 28.2 µM [inhibitor, partial curve]

Question: `COc1cc2nc(CN3C(=O)c4ccccc4C3=O)oc(=O)c2cc1OC` was tested. Which Potency did it give?
Answer: inconclusive: 14.1 µM [inhibitor, single point]

Question: With `O=C(O)/C=C\c1cn(-c2ccccc2)nc1-c1cc2ccccc2o1` as the compound, how does the Potency read?
Answer: inconclusive: 6.31 µM [inhibitor, single point]

Question: For `Cc1ccc(-c2nc3ccccc3[nH]2)cc1NC(=O)/C=C/c1ccco1`, which Potency is on record?
Answer: inconclusive: 25.1 µM [inhibitor, single point]

Question: For `Cc1ccc(C)c2[nH]c(=O)c(CN(CC3CCCO3)C(=S)NCc3ccco3)cc12` (stereo not given), which Potency is on record?
Answer: inconclusive: 39.8 µM [inhibitor, single point]

Question: For `CCOC(=O)c1sc(-c2ccc(Cl)cc2Cl)nc1O`, which Potency is on record?
Answer: inconclusive: 39.8 µM [inhibitor, single point]

Question: With `COc1cc(-c2nc(-c3ccc(NC(=O)c4ccc(Br)o4)cc3)no2)cc(OC)c1OC` as the compound, how does the Potency read?
Answer: inconclusive: 25.1 µM [inhibitor, single point]

Question: How did the Potency turn out when `CN(C)c1nc(Nc2ccccc2)nc(N(C)C)n1` was run?
Answer: inactive

Question: For `CC1CCc2nc(N)c(C#N)c(-c3cccnc3)c2C1` (stereo not given), which Potency is on record?
Answer: inconclusive: 28.2 µM [inhibitor, partial curve]

Question: Which Potency does the source give for `O=C(O)c1cn(-c2ccccc2)c(=O)c2ccccc12` here?
Answer: inconclusive: 20 µM [inhibitor, partial curve, poor fit]

Question: With `COC(=O)c1[nH]c2cc(OC)c(OC)cc2c1NC(=O)CN1CCN(Cc2ccccc2)CC1` as the compound, how does the Potency read?
Answer: inconclusive: 25.1 µM [inhibitor, partial curve]

Question: `Cc1ccc(S(=O)(=O)NC2(C(F)(F)F)NC(=O)N(C)C2=O)cc1` (stereo not given) was tested. Which Potency did it give?
Answer: inactive

Question: How did the Potency turn out when `Cc1ccccc1OC(=O)n1c(=S)oc2cc(Cl)ccc21` was run?
Answer: active: 28.2 µM

Question: How did the Potency turn out when `COc1cc(-c2nc(-c3ccc(Br)o3)no2)cc(OC)c1OC` was run?
Answer: inconclusive: 25.1 µM [inhibitor, single point]

Question: `CCOCC(=O)Nc1cc([N+](=O)[O-])ccc1OC` was tested. Which Potency did it give?
Answer: inactive

Question: With `CC(=O)N(Cc1ccc(F)cc1)C1=C(NCc2ccccc2)C(=O)c2ccccc2C1=O` as the compound, how does the Potency read?
Answer: inconclusive: 15.8 µM [inhibitor, partial curve]

Question: With `COc1cc(/C=N/NC(=O)c2ccccc2O)ccc1OC(=O)CC1SC(=O)NC1=O` (stereo not given) as the compound, how does the Potency read?
Answer: inconclusive: 25.1 µM [inhibitor, single point]

Question: With `CC1CCC2(CC1)NC(=O)N(Cc1cc(=O)n3ccsc3n1)C2=O` (stereo not given) as the compound, how does the Potency read?
Answer: inconclusive: 39.8 µM [inhibitor, single point]

Question: How did the Potency turn out when `O=C(c1ccc(C(=O)N2CCCc3ccccc32)nc1)N1CCCc2ccccc21` was run?
Answer: inactive

Question: `O=C1c2cccc3c([N+](=O)[O-])ccc(c23)C(=O)N1Cc1cccnc1` was tested. Which Potency did it give?
Answer: inconclusive: 25.1 µM [inhibitor, partial curve, poor fit]

Question: Which Potency does the source give for `Cc1ccc(CNc2ccc3c(c2)OCO3)c(C)c1` here?
Answer: inconclusive: 31.6 µM [inhibitor, single point]

Question: For `COc1cc2c(cc1OC)C(c1ccccc1F)OC(=O)C2` (stereo not given), which Potency is on record?
Answer: inconclusive: 28.2 µM [inhibitor, single point]

Question: `Cc1cnc(NC2=NCCC2)s1` was tested. Which Potency did it give?
Answer: inactive

Question: For `Cc1ccc(NC(=S)Nc2cccnc2)c(S(=O)(=O)N2CCCCC2)c1`, which Potency is on record?
Answer: inconclusive: 28.2 µM [inhibitor, single point]

Question: How did the Potency turn out when `CCCCC(=O)N(CCOC)c1nnc(-c2ccc(OC)cc2)s1` was run?
Answer: inconclusive: 31.6 µM [inhibitor, partial curve]

Reference: PubChem BioAssay AID2147 (National Center for Advancing Translational Sciences (NCATS), 2009)
